The target of data set [1] is purified full-length 2N4R P301L tau protein (Homo sapiens, UniProt P10636, P618L). As to the kind of experiment: Surface plasmon resonance (SPR) binding assay, P301L tau. As to conditions: read-out: Kd, binding to purified P301L tau protein, steady-state, immobilized tau, 25° C. As to the method:
Full-length 2N4R WT tau proteins were purified from E. coli using previously published protocols. Full-length tau was expressed with a cleavable His-tag. After elution from a nickel column, cleavage of the His-tag was achieved by incubation with tobacco etch virus (TEV) protease at room temperature for at least 4 hours, followed by passing through the His-tag column again to separate cleaved and uncleaved protein and remove the TEV. Final purification was performed by size-exclusion chromatography and the purity of the proteins was assessed by 4%-15% SDS-PAGE gels (Bio-Rad) under reducing conditions, followed by Coomassie staining. Fractions of pure proteins from the gels were pooled together and the protein stock concentrations were measured using the BCA assay (Thermo Fisher Scientific). Full-length 2N4R P301L tau protein was purchased (rPeptide).
Binding affinity between full-length 2N4R WT or P301L tau and the hit compounds were determined by SPR analysis using BIAcore 5200. […]
For direct binding assays to the tau proteins, hit compounds at eight different concentrations (1 nM to 5 μM), as well as DMSO-only controls, were prepared in HEPES-EP containing a total of 2% DMSO. […] All the samples, along with blanks from buffer and DMSO-only controls, were measured on a 96-well microplate (Biacore, GE Healthcare) at 25° C. […]

Data set [2] concerns the target T1, P301L tau FRET biosensor (tau-GFP/RFP) (Homo sapiens, UniProt P10636, P618L).
T1 construct: cDNA encoding full-length 2N4R tau (441 amino acids); expressed in transfected cells; host or cells: HEK293, transient
The data set can be described thus: P301L tau inter-molecular FRET biosensor in HEK293 cells, dose-response. In kind it is cell-based. As to the method:
(§1) HEK293 and SH-SY5Y cells (ATCC) were cultured in phenol red-free Dulbecco's Modified Eagle Medium (DMEM, Gibco) supplemented with 2 mM L-Glutamine (Invitrogen), heat-inactivated 10% fetal bovine serum (FBS HI, Gibco), 100 U/ml penicillin and 100 μg/ml streptomycin (Gibco). Cell cultures were maintained in an incubator with 5% CO2 (Forma Series II Water Jacket CO2 Incubator, Thermo Scientific) at 37° C. […] To generate stable cell lines expressing GFP-tau-RFP or tau-GFP only, HEK293 cells were transiently transfected using Lipofectamine 3000 with GFP-tau-RFP or tau-GFP DNA plasmids. Transiently transfected cells were treated with G418 (Enzo Life Sciences, Farmingdale, N.Y.) to eliminate non-expressing cells. Stable cell lines expressing GFP-tau-RFP or tau-GFP with the largest population of expressing cells were selected by fluorescence microscopy. The GFP-linker-RFP (linker contains 32 amino acids, GFP-32AA-RFP) control stable cell line was generated as described previously. The control cells expressing only free soluble fluorophores (GFP or RFP only) were generated by transiently transfecting HEK293 cells using Lipofectamine 3000 with plasmids containing GFP or RFP DNAs at the same plasmid concentration as the inter-molecular tau FRET biosensor.
(§2) The compound was dissolved in DMSO to make a 10 mM stock solution, which was serially diluted in 96-well mother plates. […]

A further data set has as its target T2, P301L tau FRET biosensor (Homo sapiens, UniProt P10636, P618L).
T2 construct: cDNA encoding full-length 2N4R tau (441 amino acids); expressed in transfected cells; host or cells: SH-SY5Y, transient
The data set can be described thus: P301L tau FRET biosensor in SH-SY5Y cells, dose-response. The class given is cell-based. As to conditions: 96 hrs, read-out: EC50, FRET reduction, P301L tau biosensor in SH-SY5Y cells. As to the method:
as §1, §2

In data set [3] the test system is SH-SY5Y human neuroblastoma cells transfected with P301L tau. In kind it is cell-based. On the procedure:
Cell cytotoxicity was measured using the CytoTox-Glo (Promega Corporation) luminescence assay kit. […] The transfected cells were then plated at a density of 10000 cells/well in white solid 96-well plate (Corning) with a total volume of 100 μl, followed by treatment with MK-886 at eight different concentrations (1 nM to 2 μM), as well as DMSO-only controls, for another 72 hours. […] The first luminescence reading was measured using a Cytation3 Cell Imaging Multi-Mode Reader luminometer (BioTek). 50 μl of Lysis Reagent with 1% Triton X-100 was then added, followed by incubation at room temperature for 15 min, and luminescence was measured again using the luminometer. Cell cytotoxicity was calculated following the manufacturer protocol. Effect of MK-886 on the suppressors of inhibitors of apoptosis (IAPB) (YM-155 and UC-112) was tested with untransfected SH-SY5Y cells plated in white solid 96-well plate with treatment of YM-155 (1 μM) or UC-112 (1 μM) in the absence or presence of MK-886 (0.5, 1 or 2 μM).

A further data set addresses P301L tau (Homo sapiens, UniProt P10636, P618L). The data set can be described thus: Western blot of tau level and Ser396 phosphorylation in SH-SY5Y cells. The class given is cell-based. As to conditions: MK-886 2 μM, 72 hours. On the procedure:
To test the expression of tau FRET biosensors, HEK293 cells were plated in a 100 mm plate at a density of 5×10^6 cells/plate and transfected with tau-GFP/RFP (tau FRET biosensor) plasmid. […] In both cases, cells were lysed for 30 minutes on ice with radioimmunoprecipitation assay (RIPA) lysis buffer (Pierce RIPA buffer, Thermo Fisher Scientific) containing 1% protease inhibitor (Clontech, Mountain View, Calif.) and 1% phosphatase inhibitors (Millipore Sigma), and centrifuged at 15,000 g at 4° C. for 15 min. The total protein concentration of lysates was determined by bicinchoninic acid (BCA) assay (Pierce), and equal amounts of total protein (60 μg) were mixed with 4× Bio-Rad sample buffer and loaded onto 4%-15% Trisglycine sodium dodecyl sulfate-polyacrylamide gel electrophoresis (SDS-PAGE) gels (Bio-Rad, Hercules, Calif.). Proteins were transferred to polyvinylidene fluoride (PVDF) membrane (Immobilon-FL, EMD Millipore, Billerica, Mass.) and probed using antibodies against tau (Tau-5, Thermo Fisher Scientific) or antibody specific to Serine 396 of tau (Phospho-Tau 5396, Thermo Fisher Scientific) with β-actin (ab8227, Abcam, Cambridge, Mass.) used as loading control. Blots were quantified on the Odyssey scanner (LI-COR Biosciences, Lincoln, Nebr.).

T1 sequence (P10636 1-441 isoform P10636-8 P301L): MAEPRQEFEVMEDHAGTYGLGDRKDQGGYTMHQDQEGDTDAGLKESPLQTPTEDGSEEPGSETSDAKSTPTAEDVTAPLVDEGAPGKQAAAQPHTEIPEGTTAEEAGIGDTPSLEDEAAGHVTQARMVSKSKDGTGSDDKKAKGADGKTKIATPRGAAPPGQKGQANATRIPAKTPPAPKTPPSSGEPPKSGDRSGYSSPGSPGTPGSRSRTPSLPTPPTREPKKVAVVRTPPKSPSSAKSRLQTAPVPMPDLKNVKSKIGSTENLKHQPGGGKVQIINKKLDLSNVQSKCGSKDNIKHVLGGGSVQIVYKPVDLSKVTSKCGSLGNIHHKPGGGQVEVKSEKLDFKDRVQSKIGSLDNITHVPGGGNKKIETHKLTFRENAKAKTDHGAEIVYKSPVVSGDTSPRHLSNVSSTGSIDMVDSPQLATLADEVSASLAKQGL
T1 sequence (P10636 1-441 isoform P10636-8 P301L): as above
Sequence of P301L tau (P10636 1-441 isoform P10636-8 P301L): as above
Sequence of purified full-length 2N4R P301L tau protein (P10636 1-441 isoform P10636-8 P301L): as above
T2 sequence (P10636 1-441 isoform P10636-8 P301L): as above
T2 sequence (P10636 1-441 isoform P10636-8 P301L): as above

In general, Kd refers to the free concentration of one partner at which half of the binding sites on the other are occupied at equilibrium, for simple one-to-one binding. Broadly, the EC50 is the concentration at which the effect is half-maximal. By IC50 is commonly meant the point on the concentration scale where inhibition reaches its midpoint. A lower IC50 goes with greater potency. `CC(C)c1ccc2c(c1)c(SC(C)(C)C)c(CC(C)(C)C(=O)O)n2Cc1ccc(Cl)cc1` [MK-886]: the Kd in data set [1] was found to be 375 nM. Also, the “FRET level of P301L biosensor after treatment” value in data set [2] (dose response) is “lowered the FRET level of P301L biosensor to the basal FRET level of WT tau biosensor”. The EC50 in data set [2] (read-out: EC50, decrease of FRET efficiency, P301L tau biosensor) was 1840 nM. For the same compound, the EC50 on P301L tau FRET biosensor was determined as 1060 nM. This compound had an IC50 in data set [3] of 523 nM. At P301L tau, the “phosphorylation state of tau (Serine 396)” value is given as “no changes” and the “relative levels of expressed tau (Tau-5 antibody)” value was “no changes”.

The values above are taken from patent US11726081B2, “Methods to identify modulators of tau protein structure” (REGENTS OF THE UNIVERSITY OF MINNESOTA, priority 2019, dated 2023).
